Experiments:
HuCC-T1 cells = assay: Transwell Matrigel invasion assay, HuCC-T1; format: cell-based, human; details: HuCC-T1, 20 μg/mL for 3 days vs isotype control mAb; p=0.02
Procedure: (§1) In an additional study, a transwell invasion assay was used to assess the effect of anti-CLDN1 mAb H3L3 treatment on cancer invasion. In this assay, EGI-1 or HuCC-T1 cells were seeded in 12 well plates and treated with 20 μg/mL isotype control mAb or with 20 μg/mL anti-CLDN1 mAb H3L3 (Colpitts et al., 67(4) Gut 736-745 (March 2017)) for 3 days. 0.5×10^5 cells were then seeded in transwells (8-μm pore polycarbonate membrane insert) in 24-well dishes with 75 μl Matrigel (Corning) and serum-free medium (1:20). Following solidification for 10 minutes in the incubator (37° C., 5% CO2), 600 μL of 1% serum-supplemented medium was added to the bottom wells. Non-invading cells were removed by scrubbing with cotton swabs, and invading cells were fixed using 70% ethanol and stained with crystal violet (0.2%) after 72 hours. Cells on the underside of the membranes were then visualized in 5 randomly selected fields and quantified using ImageJ. Each experiment was independently repeated at least three times.

EGI-1 cells = assay: Transwell Matrigel invasion assay, EGI-1; format: cell-based, human; details: EGI-1, 20 μg/mL for 3 days vs isotype control mAb; p=0.02
Procedure: as §1

[1] = test system: patient-derived CCA tumor tissues; assay: CCA patient-derived xenograft (PDX) mouse model, tumor growth; format: in vivo; details: PDX NRG mice, 25 mg/kg i.p. once per week vs PBS; p<0.05
Source text: On the other hand, molecular drivers and treatment responses strongly vary between different CCA subclasses and patients (Banales et al., 17 Nat Rev Gastroenterol Hepatol 557-588 (2020)). […] Thus, a PDX mouse model was established to evaluate the anti-CLDN1 mAb H3L3 anti-tumoral efficacy and response rate.
Non-Obese Diabetic Rag1^−/−IL2Rgc^−/− (NRG) were subcutaneously injected with fresh tumor tissues cut into small pieces (approximately 2-3 mm in diameter). When the average tumor volumes reached 40 mm^3, mice were randomized into two different groups and treated with the anti-CLDN1 mAb H3L3 (25 mg/kg i.p. once per week, n=10 mice), or with vehicle control (PBS i.p. once per week, n=11 mice). Tumor growth was monitored using a digital caliper and tumor volume was calculated using the ½(length×width^2) formula.

EGI-1 CDX tumor samples = assay: Western blot of key signaling pathways in EGI-1 CDX tumor samples; format: in vivo, mouse; details: EGI-1 CDX tumors, Western blot quantification vs control
Procedure: To further investigate the antitumoral effect of CLDN1-targeting mAb, key signaling pathways implicated in CCA development and progression were analyzed in EGI-1 CDX tumor samples (FIGS. 4B-4C).
For protein extraction from CDX tumors, tumor pieces were lysed with lysis buffer (Triton 1%; NaCl 50 mM; Tris 50 mM pH 7.6; MgCl2 2 mM in ddH2O) supplemented with proteinase inhibitors (Roche) and phosphatase inhibitors (Sigma Phosphatase Cocktail number 2 and 3) during 30 min at 4° C. Then the samples were centrifuged at 10000×g for 10 min and the supernatant was collected. Protein quantification was assessed with Thermo Scientific BCA Kit. Gels were prepared following the Biorad TGX gel protocol (BioRad). The gels were transferred using the Biorad trans blot turbo protocol (BioRad) into PVDF membranes. Blocking of the membranes was performed with 5% BSA in TBS-T for 1 h. The membranes were incubated with YAP/TAZ (D24E4) Rabbit mAb (#8418, Cell Signaling Technology), Phospho-YAP (Ser127) (D9W2I) Rabbit mAb (#13008, Cell Signaling Technology), SRC Rabbit mAb (#21085, Cell Signaling Technology), Phospho-SRC (Tyr416) Rabbit mAb (#21015, Cell Signaling Technology), Notch1 (D1E11) XP® Rabbit mAb (#3608, Cell Signaling Technology), Cleaved Notch1 (Val1744) (D3B8) Rabbit mAb (#4147, Cell Signaling Technology) and monoclonal anti-β-Actin antibody produced in mouse (Sigma) in 2.5% BSA in TBS-T with a dilution of 1:1000 overnight at 4° C. The membranes were incubated with Horseradish Peroxidase conjugated secondary antibodies in 2.5% BSA in TBS-T with a dilution of 1:10000 for 1 h at room temperature. Protein immunodetection of the membranes was performed with Clarity ECL Western Blot Substrate (Biorad) in a ChemiDoc MP Imaging System (Biorad). Immunoblot images were analyzed using Image Lab Software v6.1 (Biorad).

[2] = test system: HuCC-A1 (intrahepatic CCA) cell line; assay: HuCC-A1 cell line-derived xenograft (CDX) mouse model, tumor growth; format: in vivo; details: HuCC-A1 CDX NRG mice, 25 mg/kg i.p. once per week for 6 weeks vs PBS; p<0.001
Source text: To assess the in vivo anti-tumorigenic activity of an anti-CLDN1 monoclonal (CLDN1 mAb H3L3) antibody in CCA, anti-CLDN1 mAb's effect on tumor growth was investigated in both intrahepatic CCA and extrahepatic CCA cell line-derived xenograft (CDX) mouse models.
Non-Obese Diabetic Rag1^−/−IL2Rgc^−/− (NRG) were subcutaneously injected with 5×10^6 cells of HuCC-A1 (intrahepatic CCA) or EGI-1 (extrahepatic CCA) cell line. Non-Obese Diabetic Prkdc^scidIL2Rg^−/− (NSG) were subcutaneously injected with 5×10^6 cells of the HuCC-T1 (intrahepatic CCA) cell line. When the average tumor volumes reached 40-50 mm^3, mice were randomized into two different groups and treated for 6 weeks with the anti-CLDN1 mAb H3L3 (25 mg/kg i.p. once per week), or with vehicle control (PBS i.p. once per week). Tumor growth was monitored using a digital caliper and tumor volume was calculated using the ½ (length×width^2) formula. (FIG. 2A).

[3] = test system: metastatic HuCC-T1 CCA cells; assay: CCA lung metastasis mouse model, intravenous HuCC-T1 cells, CK18 staining; format: in vivo; details: NRG mice, 25 mg/kg i.p. twice per week for 6 weeks vs PBS; p<0.05
Procedure: To assess the in vivo activity of the anti-CLDN1 mAb (H3L3) on invasion and metastasis, treatment with the anti-CLDN1 antibody was investigated in a state-of-the-art mouse model for CCA metastasis based on intravenous injection of metastatic HuCC-T1 CCA cells.
Non-Obese Diabetic Rag1^−/−IL2Rgc^−/− (NRG) mice were treated with anti-CLDN1 mAb H3L3 (Colpitts et al., 67(4) Gut 736-745 (March 2017)) (25 mg/kg i.p.), or vehicle control (PBS i.p.) 1 day before intravenous injection of 0.5×10^6 h HuCC-T1 cells through the retro-orbital vein. Mice were randomized into two groups and treated for 6 weeks with anti-CLDN1 mAb H3L3 (Colpitts et al., 67(4) Gut 736-745 (March 2017)) (25 mg/kg i.p. twice per week) or vehicle control (PBS i.p. twice per week). After 6 weeks, mice were sacrificed, lungs were harvested, and cytokeratin 18 (CK18) staining was used to identify and quantify CK18-positive cholangiocarcinoma metastasis in the lungs (FIG. 5A).

B1: anti-CLDN1 mAb H3L3: humanized anti-Claudin-1 monoclonal antibody; heavy chain SEQ ID NO: 11, light chain SEQ ID NO: 12 (VH SEQ 13, VL SEQ 14) (antibody)
heavy: QVQLVESGGGVVQPGRSLRLSCLGSGFSFSSYGMNWVRQAPGKGLEWVASISPSGSYFYYADSVKGRFTISRDNSKNTLYLQMTSLRAEDTAIYYCARLPGFNPPFDHWGQGTLVTVSSASTKGPSVFPLAPSSKSTSGGTAALGCLVKDYFPEPVTVSWNSGALTSGVHTFPAVLQSSGLYSLSSVVTVPSSSLGTQTYICNVNHKPSNTKVDKRV[no letters for human IgG1 Fc]
light: DIQMTQSPSSLSASVGDRVTITCKASQNVGGNVDWYQWKPGKAPKLLIYGASNRYTGVPDRFRGSGSGTDFTLTISSLQPEDVATYYCLQYKNNPWTFGGGTKVEIKRTVAAPSVFIFPPSDEQLKSGTASVVCLLNNFYPREAKVQWKVDNALQSGNSQESVTEQDSKDSTYSLSSTLTLSKADYEKHKVYACEVTHQGLSSPVTKSFNRGEC
modifications: H3L3 Heavy Chain; H3L3 Light Chain
number of invasive cells (HuCC-T1 cells): markedly and significantly decreased
number of invasive cells (EGI-1 cells): markedly and significantly decreased
tumor growth (tumor volume) [1]: markedly and significantly slowed tumor growth
SRC phosphorylation (EGI-1 CDX tumor samples; p<0.0001): significant decrease
cleaved Notch1 (EGI-1 CDX tumor samples; p<0.001): reduction
YAP S127 phosphorylation (EGI-1 CDX tumor samples; p<0.01): strong increase
tumor growth (tumor volume) [2]: Strong and robust inhibition of tumor growth
CK18 positive area in lung sections [3]: decrease
metastasis formation in lungs [3]: significantly reduced
